Whole data set: some 33,000 sequences, median “E-score (-0.5 to 0.5)” near -0.01, cut for the highest 2% near 0.26. This is one part of the list.
Target: Ste12 (UniProt P13574)
Assay: PBM E-score (8-mer binding enrichment) (E-score (-0.5 to 0.5)); higher = stronger / more preferred TF binding; most listed sequences are background and not binding sites
Conditions: protein concentration: 200 nM; construct: GST-DNA-binding domain
How it was run: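 Each ungapped eight-base word and its reverse complement, pooled, received an E-score from the Universal PBM Analysis Suite. Underlying scans, normalised with masliner, recorded fluorescent anti-GST bound to GST-tagged yeast transcription factors. These were applied at about 100-200 nM to universal all-10-mer Agilent arrays double-stranded by primer extension.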

Sequence	PBM E-score
AGGGCCGC	-0.386
GAAGTTCA	0.0529
AACCGCGC	0.0907
CGAGTATC	-0.081
ACAGGGGG	-0.0966
AAATGGAT	0.0735
ATCCCGGA	0.043
CAACCAGC	-0.171
GCGCCAGC	-0.301
ACGAGCGG	-0.108
GTACGGAC	-0.141
GAATTACC	0.0501
GGCTGCCC	-0.177
GGCTGATA	0.126
AGGAGCGC	-0.0491
ATCGTGGC	-0.129
TGCAAAAA	0.118
GGGGATTA	0.0663
ATTTCTCG	0.195
CCGGTTGA	-0.0577
CTCAGCTA	-0.163
AGAAACTA	0.0653
AGGAACAT	-0.202
TATGAGAA	0.0646
TGCCGCAA	0.215

Sequence	PBM E-score
CTCACCAG	-0.0408
ACCAAGTC	-0.208
CGGTGCAA	-0.114
ACGCATGA	0.0604
CCCCGACA	0.0523
AATTCCGT	0.0756
CAATTCAC	0.00493
TGAGCACA	-0.183
ACGTACCT	-0.174
CCTCACGC	0.0834
AAGAAGAG	-0.00818
CTCTGGGA	-0.116
AGTCCACC	-0.126
AGTGGGCA	-0.133
CGAGATAC	0.0175
GTGGTCAA	-0.232
GAAATACA	-0.00127
ACGCGAAC	-0.0367
ACCATGGA	-0.123
GCGTGGAC	-0.0952
CGTGTCTA	0.036
GCGACGCA	-0.0253
TGTACTAA	0.053
CTAACTGA	0.109
CGGGCTAC	-0.239

Sequence	PBM E-score
AGCTTTTA	-0.0867
CGTCCACG	-0.172
CAAGTAGC	-0.0735
ATAATTCG	-0.0149
GATCAATA	0.0263
CCCTCCAC	-0.0433
CAGCAGGG	-0.0615
CGTCACAC	0.0677
GATATCCA	0.159
ATCAAAAA	0.316
CGTGACTC	-0.2
ACCGCGCG	0.273
TATCCTGA	0.0769
ATAAGACG	-0.0172
ATTACCAG	0.02
ACATCTCA	-0.0976
TTCTAGAA	0.127
ACAACTGG	-0.0989
ACGGGTCC	-0.178
GACGTTGA	0.0286
CGGGCCGC	0.0103
AGCAGGCG	0.00011
GCACAGGC	-0.173
CAGACGGC	-0.341
TACAAAAA	0.237

Sequence	PBM E-score
AACATTAG	0.0988
GCTTTGAA	-0.0635
TGATCCCA	-0.0532
CACTACAG	-0.0202
GGTAACCA	-0.12
CGGAGTAC	-0.215
ATGTAGTC	0.0246
GACGGGGA	0.182
CGCGGGCC	0.0929
CAGATGCC	-0.125
CCATTCAG	0.037
CGTGGAAC	-0.0152
ATTGTGGA	0.0744
ACGTGAAC	-0.226
GGATGGGA	0.0601
CATGGTAC	-0.0268
GCTTGGTA	0.0107
AGGTCCTA	-0.0988
CATCGGGG	-0.0738
AAAGGCTG	-0.034
CGCACTTA	0.0975
TCGGTACA	0.0794
ACGTCAGG	-0.152
CACTTCTA	0.00316
CTGATCAC	-0.0885

Sequence	PBM E-score
AAGAACGA	0.0772
CCCGCAGG	0.00157
TAGTACAA	0.00627
CCCGTGAG	-0.158
AAAAGCCA	0.13
CCGTGCAC	-0.129
AAATGCCA	0.0331
AGAAAGTA	0.138
GGCGCGAC	0.227
ACCCACTA	-0.00205
TAGGGTAA	0.184
ACGTGAAA	0.323
CGCCATTC	0.0062
ATCATGAT	0.0551
CCTCCCCC	-0.134
CATCGAGG	-0.109
AGTGCCCC	-0.2
GTGCTCAA	0.036
GGTCATAA	0.0211
ACGTCAAG	-0.222
AAGGCACA	0.0756
ACAGATAA	0.166
CTCCGTTA	-0.0784
AATCAATC	0.116
GATGTTAA	0.123

Sequence	PBM E-score
CCCGAATC	-0.00223
TCGCCTCA	-0.0386
GTATGCGA	-0.0958
AGCGTACC	-0.146
ATTATTTA	0.281
ATATTCGA	-0.151
TCTCTCCA	-0.0624
TCCCAGAA	-0.0433
CCTTACTA	0.0617
ACACTGTA	0.0565
CAAGGACC	-0.14
ATCCTCCC	-0.0174
AGGCGGGG	0.269
CATTACCA	0.019
ACGTGTAA	-0.074
AAGCGCAG	-0.0659
CCGGGGCC	0.0185
CCCCCCCC	-0.275
TCGAGACA	-0.0424
CAAACTTC	0.124
AGGTACTA	0.00059
CCCTGGGC	-0.133
CCGTGTCA	0.111
TCGACTAA	0.0302
ATTCCTGA	0.144

Sequence	PBM E-score
AAATGACA	-0.0446
CTGCTACA	0.0671
CGCGGAGA	0.00397
AAGGATCG	0.0415
CCCACAAG	-0.133
CAAGGAGC	-0.157
CACTTAGC	-0.179
ACTTGTGG	0.116
CCTGTTCA	-0.108
AAATTTTC	0.105
CATGACTA	-0.176
AATTAATG	0.232
ACCTATCC	-0.00379
CGTCCAGC	-0.127
GCATGAGC	-0.0419
ACACAGGA	0.0461
ATTGTGGC	0.0287
AAACGACC	0.161
AAACCTCA	0.256
GAATGAGC	-0.0246
GAGCTGGC	-0.0837
GAGGACGC	-0.101
